Results published in the supplement of paper PMC3334620.
Over roughly 33,000 sequences, “E-score (-0.5 to 0.5)” has its median near -0.016; the highest 2% begin near 0.31. The list shows a part of the results.

Biological target: Cst6 (UniProt P40535)
Experiment: PBM E-score (8-mer binding enrichment) (E-score (-0.5 to 0.5)); higher = stronger / more preferred TF binding; most listed sequences are background and not binding sites
Conditions: protein concentration: 200 nM; construct: GST-DNA-binding domain
Summary of the method: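 Using PURExpress in vitro transcription/translation, GST-tagged yeast transcription factors were made in full-length or DNA-binding-domain form. These were applied at about 100-200 nM to double-stranded universal all-10-mer Agilent arrays, and bound protein was detected with fluorescent anti-GST. Scans were normalised with masliner before the Universal PBM Analysis Suite assigned E-scores to ungapped eight-base words pooled with their reverse complements.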

Going from GCGCTTTA to AGTTCTTC, the “PBM E-score” value falls from 0.154 to 0.118.

Compared with ACTACACG, ATCTTTTG is higher in “PBM E-score” value: 0.00623 for the first, 0.103 for the second.

First: AGCGGGGG
Second: CAGGCGAA
The “PBM E-score” value of the first is lower: -0.403 for the first, 0.0088 for the second.

First: AATAGTAA
Second: AAGTTGCC
The “PBM E-score” value of the first is higher: 0.135 for the first, -0.143 for the second.

Compared with ATGGCCCG, AAGGCTCA is higher in “PBM E-score” value: -0.113 for the first, 0.0248 for the second.

First: AGGGGTCA
Second: CATTCGTA
The “PBM E-score” value of the first is lower: -0.12 for the first, 0.114 for the second.

First: TACTCTAA
Second: ACATCATG
The “PBM E-score” value of the first is lower: 0.0112 for the first, 0.409 for the second.

Compared with GCTGACAC, CGAAGACA is higher in “PBM E-score” value: -0.085 for the first, -0.0389 for the second.

Going from AGGCACTG to CCTGCAAG, the “PBM E-score” value falls from 0.0504 to -0.196.

First: TGACGGAA
Second: AGAGCCCT
The “PBM E-score” value of the first is higher: 0.432 for the first, -0.213 for the second.

First: AACGCGCT
Second: CCACTGGC
The “PBM E-score” value of the first is higher: -0.111 for the first, -0.244 for the second.

First: GCAAATTA
Second: CGGCGAGC
The “PBM E-score” value of the first is higher: 0.125 for the first, 0.1 for the second.

Compared with GCGATAAA, ACTGGGAG is lower in “PBM E-score” value: 0.0621 for the first, -0.206 for the second.

Compared with CGCTCCCA, CCTAACTA is higher in “PBM E-score” value: -0.219 for the first, 0.0863 for the second.

Going from CTACACAA to GGCACCCA, the “PBM E-score” value falls from 0.0767 to -0.122.

Compared with ATAGCCGG, CCTCCATA is higher in “PBM E-score” value: -0.102 for the first, -0.0258 for the second.

First: AAAGCGTT
Second: CCCGTAGG
The “PBM E-score” value of the first is higher: -0.116 for the first, -0.244 for the second.

Going from CGAGTTAG to GACAGGGA, the “PBM E-score” value falls from -0.036 to -0.162.

Compared with GACTGCCC, GATGGAGC is higher in “PBM E-score” value: -0.228 for the first, -0.201 for the second.

First: AAGGCTAA
Second: GAAAGCAC
The “PBM E-score” value of the first is lower: 0.0771 for the first, 0.122 for the second.

Going from ATGAATCG to GCAGTGGA, the “PBM E-score” value falls from 0.04 to 0.0181.

Going from ACACTTAG to AGCGGGAC, the “PBM E-score” value falls from 0.0896 to -0.211.

Going from GATTACGA to GCGTCGTA, the “PBM E-score” value falls from 0.364 to 0.137.

Going from CCTGCAGA to AACCGCCC, the “PBM E-score” value falls from -0.081 to -0.292.

First: CACAATGC
Second: GTTTGTAA
The “PBM E-score” value of the first is lower: -0.0378 for the first, 0.0409 for the second.

Compared with CCCAGATC, ACATTCTG is higher in “PBM E-score” value: -0.32 for the first, 0.0657 for the second.

Going from CAAGAGTC to GCATAACC, the “PBM E-score” value falls from -0.213 to -0.217.

Going from ATACCCGG to ATGGAAAC, the “PBM E-score” value rises from -0.215 to -0.025.

Compared with CACTGGGG, CAGACAAA is higher in “PBM E-score” value: -0.271 for the first, 0.136 for the second.

Compared with GGTGTTCA, AGCAGCAT is lower in “PBM E-score” value: 0.00946 for the first, -0.207 for the second.

First: CGAGCTGA
Second: AGGTGACC
The “PBM E-score” value of the first is lower: -0.00935 for the first, 0.046 for the second.

Compared with ACTACTCC, GATGTATA is higher in “PBM E-score” value: -0.128 for the first, 0.143 for the second.

Compared with TCCTGGAA, CCCACACC is higher in “PBM E-score” value: -0.221 for the first, -0.12 for the second.

Going from AACTTCTG to CCGCGTAC, the “PBM E-score” value falls from 0.0936 to 0.0816.

Going from ACCGACGC to CCAAGGGA, the “PBM E-score” value falls from -0.0568 to -0.35.

First: CACGGCGA
Second: CCTTCACA
The “PBM E-score” value of the first is higher: 0.21 for the first, -0.0836 for the second.

Going from CTGACGGA to ACACCAAG, the “PBM E-score” value falls from 0.165 to -0.0647.

Compared with AATCGAGC, GGACACTA is lower in “PBM E-score” value: 0.0689 for the first, -0.0576 for the second.

First: ACACCCAA
Second: AGTATCGA
The “PBM E-score” value of the first is lower: -0.0561 for the first, 0.198 for the second.

Going from AGGCATTG to CGACAGCG, the “PBM E-score” value falls from -0.0603 to -0.145.

Compared with TACGAATA, ACAGGACA is lower in “PBM E-score” value: 0.189 for the first, 0.0954 for the second.

First: CGCACTGA
Second: ACCCGCCG
The “PBM E-score” value of the first is higher: 0.0585 for the first, 0.0323 for the second.

Compared with GCTAAGGA, CTAGCGTA is lower in “PBM E-score” value: -0.223 for the first, -0.303 for the second.

Compared with AGACTAGC, AAGTTGCT is higher in “PBM E-score” value: -0.239 for the first, -0.0202 for the second.

Compared with GTACCTAC, ACCTGTTA is higher in “PBM E-score” value: -0.224 for the first, -0.0507 for the second.

Compared with CTCACCGA, ACTTTTGC is higher in “PBM E-score” value: 0.048 for the first, 0.165 for the second.

First: AGAATGCG
Second: AGCAGCCG
The “PBM E-score” value of the first is lower: 0.0202 for the first, 0.0863 for the second.

First: TCAGCCAA
Second: ATCTCGCA
The “PBM E-score” value of the first is lower: -0.129 for the first, 0.257 for the second.

Going from AAGACTAA to ATGTCACA, the “PBM E-score” value rises from 0.0225 to 0.375.

Going from TGATGGAA to AATGTGAG, the “PBM E-score” value falls from 0.19 to 0.0831.

Going from GTTTAAAA to CCTTTGAC, the “PBM E-score” value falls from 0.247 to -0.0709.

First: CTCTTGGC
Second: CGCGTCAC
The “PBM E-score” value of the first is lower: -0.146 for the first, 0.418 for the second.

Compared with ATTTCAGG, GCCATTGA is lower in “PBM E-score” value: 0.0994 for the first, 0.0377 for the second.

Going from CCAACTTA to GAAGCTGC, the “PBM E-score” value falls from 0.0114 to -0.117.

For ATGTTGGC, the “PBM E-score” value was -0.0418.
